Measured values from PubChem BioAssay AID1345083 (National Center for Advancing Translational Sciences (NCATS), 2018).
The campaign covered roughly 94,000 compounds. About 6,200 (6.6%) were called active. This list was built around the results that the source calls inconclusive (neither active nor inactive); the mix of calls is not that of the screen. The call rests on the fitted dose curve; in most records, active means well fitted inhibition curve with a large enough effect; inconclusive means small, poorly fitted or top-dose-only effect; inactive means flat fitted curve, though single readings scatter. Potencies of inconclusive entries are doubtful fits and often do not repeat.

Assay: Cytotoxic Profiling in HEK 293 Cell Line of Diverse Libraries Using Quantitative High-Throughput Screening; further: nearly all actives have a fitted effect of over 60% in size
Conditions: HEK 293 viability, ATP luminescence (CellTiter-Glo), 48-72 h; series mostly up to 115 µM
Method in brief: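 Cells seeded first (HEK 293, 250 cells/well), then compound added by pintool. Incubation ran 48 or 72 hr at 37 degree Celsius. CellTiter-Glo was added and luminescence imaged after 10 min at room temperature.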
Potency means the concentration at half of the fitted maximal effect; tags describe the fitted curve by direction and shape.

Row | SMILES | Potency
1 | CCOC(=O)C1(Cc2ccccc2)CCCN(S(=O)(=O)c2ccc(OC)c(OC)c2)C1 (configuration not stated) | inconclusive: 89.1 µM [inhibitor, partial curve, poor fit]
2 | O=C1CN([S+](=O)([O-])Cc2ccccc2)CC(O)CN1CCc1ccccc1 (configuration not stated) | inconclusive: 31.6 µM [inhibitor, full curve]
3 | Cc1ccc(NC(=O)Nc2cccn3nc(C)nc23)cc1 | inconclusive: 50.1 µM [inhibitor, partial curve, poor fit]
4 | O=C(C1CCCCC1)N1CCCC2(CC(c3cccc(C(F)(F)F)c3)=NO2)C1 (configuration not stated) | inconclusive: 89.1 µM [inhibitor, partial curve, poor fit]
5 | CC(C)(C)c1cccc(CN2CCC3(CCNCC3)C2)c1O | active: 22.4 µM
6 | O=C1c2cnc(-c3cccnc3)nc2OCCN1Cc1ccccc1 | inconclusive: 100 µM [inhibitor, partial curve]
7 | O=C(NCc1cccc(F)c1)C1CCN(c2nccc(Nc3ccccc3Cl)n2)CC1 | active: 44.7 µM
8 | O=C(NCc1ccc(Cl)nc1)c1cn2c(n1)CN(C(=O)OCc1ccccc1)CC2 | inactive
9 | CC(C)(C)C(=O)N1CCC2(CC1)NCCc1c2[nH]c2ccccc12 | inconclusive: 35.5 µM [inhibitor, partial curve]
10 | O=C(Nc1cccc(F)c1)C1CCN(c2cc(C(F)(F)F)ncn2)CC1 | inconclusive: 39.8 µM [inhibitor, full curve]
11 | O=C(NCCc1ccc(Cl)cc1)c1nc(-c2cccnc2)c2cnccn12 | inconclusive: 7.94 µM [inhibitor, full curve, poor fit]
12 | CN(C)CCN(C)[C@H]1[C@H](O)C[C@@H]2CC(C)(C)OC[C@]21O | inconclusive: 39.8 µM [inhibitor, single point]
13 | COc1cccc(-c2ccc(C(=O)N3CCC(NC(=O)Nc4ccccc4F)CC3)cc2)c1 | active: 15.8 µM
14 | CC(C)COC(=O)N1C[C@H](C(N)=O)[C@H]2c3ccccc3N(C)C(=O)[C@]21C | inactive
15 | COc1cccc(Nc2nc(-c3c(C)noc3C)cc3cc(CN(C)C)oc23)c1 | active: 44.7 µM
16 | O=C(C1CCCC1)N1CC2(CCCN2C2COC2)Cc2ccccc21 (configuration not stated) | inactive
17 | Cc1ccc(C(=O)N2CC3(Cc4ccccc4N([S+](C)(=O)[O-])C3)C2)cc1 | inconclusive: 50.1 µM [inhibitor, partial curve, poor fit]
18 | COc1ccc2c(=O)n(CC(=O)N3CCCC(C#N)C3)ccc2c1OC (configuration not stated) | inactive
19 | CCc1cccc(NC(=O)Cn2c(-c3ccc(F)cc3)nc(C)c(CCO)c2=O)c1 | inconclusive: 35.5 µM [inhibitor, full curve, poor fit]
20 | Clc1ccc(CN2CCC3(CC2)CC(c2cccnc2)=NO3)cc1 | inconclusive: 50.1 µM [inhibitor, partial curve]
21 | Cc1ccccc1CN1Cc2nc(OCc3cccnc3)ccc2OCC1=O | inconclusive: 89.1 µM [inhibitor, partial curve, poor fit]
22 | O=C(NCC1CCC(=O)N(Cc2ccccc2)CC1)C1CCCC1 (configuration not stated) | inactive
23 | COc1ccc(CC(=O)N2CC[C@@H](CC(=O)O)[C@@H](CCN3CCN(c4cccc(C(F)(F)F)c4)CC3)C2)cc1 | inconclusive: 39.8 µM [inhibitor, partial curve, poor fit]

Row | SMILES | Potency
24 | COCCN1CCNc2cc(-c3cc(Cl)ccc3OC)ncc2C1 | inconclusive: 112 µM [inhibitor, partial curve]
25 | COc1cc(-c2noc(-c3ncn4c3COC(c3ccc(F)cc3)C4)n2)cc(OC)c1OC (configuration not stated) | inconclusive: 50.1 µM [inhibitor, partial curve, poor fit]
26 | CC(C)Cn1c(=O)c(C(=O)NCC2CC2)nc2cccnc21 | inconclusive: 63.1 µM [inhibitor, full curve, poor fit]
27 | CC(C)NC(=O)CCc1cc2n(n1)CCN(Cc1cc(=O)[nH]c(=O)[nH]1)C2 | inactive
28 | CC(C)CN(CC1CN(C(=O)c2ccccc2)CCO1)C(=O)c1cccc2ccccc12 (configuration not stated) | inconclusive: 50.1 µM [inhibitor, partial curve, poor fit]
29 | O=C(c1ccc(Cl)cc1)N1CCCN(c2ccnc3ccnn23)CC1 | inconclusive: 25.1 µM [inhibitor, full curve]
30 | O=C(CN1CCCCCC1)NCC1Cn2cccc2C(=O)N1Cc1ccccc1 (configuration not stated) | inactive
31 | COc1ccc(NC(=O)[C@@H]2C[C@@H](c3ccc(F)cc3)N([S+](=O)([O-])c3ccccc3)C2)c(C)c1 | inconclusive: 79.4 µM [inhibitor, partial curve, poor fit]
32 | CC(C)c1noc(CN(C)C(=O)CC2C(=O)NCCN2Cc2ccoc2)n1 (configuration not stated) | inactive
33 | O=C(NCc1cccc(Cl)c1)c1cn2cc(-c3cccc(C(F)(F)F)c3)sc2n1 | inconclusive: 63.1 µM [inhibitor, full curve]
34 | COC(=O)[C@@H]1Cc2ncn(Cc3ccc(Cl)cc3)c2CN1C(=O)c1cccs1 | inactive
35 | Cc1nn(-c2ccccc2)c2c1C(C(C)C)N(C1CN([S+](C)(=O)[O-])C1)C2=O (configuration not stated) | inactive
36 | CCn1cc(S(=O)(=O)N2CC(N(Cc3cccnc3)CC(C)C)C2)cn1 | inactive
37 | COc1ccc(Cl)cc1C(=O)NC1CCN(c2cc(-c3cccs3)[nH]n2)C1 (configuration not stated) | inconclusive: 39.8 µM [inhibitor, partial curve, poor fit]
38 | CC1=NOC2(CCN(Cc3ccc(C(F)(F)F)cc3)CC2)C1 | inconclusive: 126 µM [inhibitor, single point]
39 | COCCN1CC(C(=O)NCc2sc3ccccc3c2Cl)CCC1=O (configuration not stated) | inconclusive: 50.1 µM [inhibitor, partial curve]
40 | O=C(NCc1cccs1)C1CCc2sc(C(=O)N3CCCCCC3)cc2C1 (configuration not stated) | inconclusive: 50.1 µM [inhibitor, partial curve, poor fit]
41 | Cc1noc(C)c1[S+](=O)([O-])NC1CCN(c2nccc(Nc3ccccc3F)n2)CC1 | inconclusive: 50.1 µM [inhibitor, partial curve, poor fit]
42 | c1ccc(Cc2nnc([C@H]3CCN(C4CCCCC4)C3)o2)cc1 | inactive
43 | COc1ccc(C(=O)NC2CCN(c3nccc(Nc4ccccc4Cl)n3)CC2)cc1 | inactive
44 | Cc1ccc(C(=O)N2CCCn3cc(-c4ccccc4)nc32)cn1 | inconclusive: 35.5 µM [inhibitor, full curve, poor fit]
45 | Cc1noc2c(NCCCn3ccnc3)cc(-c3ccccn3)nc12 | inactive
46 | COc1ccccc1C(=O)NC1CCN(Cc2cccc(-c3ccccc3OC)c2)CC1 | active: 44.7 µM

Row | SMILES | Potency
47 | Cc1ccc(C(=O)N2CCN(c3cc(-c4cccs4)[nH]n3)CC2)cc1C | inconclusive: 50.1 µM [inhibitor, partial curve, poor fit]
48 | COc1ccc(C2(C(=O)N3CCCCCC3c3nc(C4CC4)no3)CC2)cc1 (configuration not stated) | inconclusive: 50.1 µM [inhibitor, partial curve, poor fit]
49 | FC(F)(F)C1CN(c2ccc3cc(Cl)ccc3n2)CCO1 (configuration not stated) | inconclusive: 89.1 µM [inhibitor, single point]
50 | CC1(COCC2CC2)COc2ccc(C(=O)Nc3cccnc3)cc2N1 (configuration not stated) | inconclusive: 79.4 µM [inhibitor, partial curve]
51 | Oc1ccc(-c2nc(C3CC3)nc3c2CN(Cc2ccccc2C(F)(F)F)CC3)cc1 | inconclusive: 50.1 µM [inhibitor, partial curve, poor fit]
52 | CCn1nc(CC(C)C)cc1C(=O)NCCS(=O)(=O)c1ccc(F)cc1 | inactive
53 | Cc1ccc2oc(C(=O)N(C)Cc3cc(-c4ccccc4)no3)c(C)c2c1 | inconclusive: 89.1 µM [inhibitor, single point]
54 | O=C(NC1CCCCCC1)C1CCc2nnc(CN[S+](=O)([O-])c3ccccc3Cl)n21 (configuration not stated) | inactive
55 | C[S+](=O)([O-])N1Cc2ccccc2CC2(CCCN(Cc3cccnc3)C2)C1 (configuration not stated) | inactive
56 | COc1ccc(S(=O)(=O)N2[C@@H]3CC[C@H]2CC(NC(=O)c2ccncc2)C3)cc1 (some centres not stated) | inactive
57 | CC[C@@]1(O)CCN(C(=O)c2sc(C)cc2OC)C[C@H]1O | inactive
58 | CCn1cc(S(=O)(=O)N2CCC(Oc3ccc(-c4noc(C5CC5)n4)cc3)C2)cn1 (configuration not stated) | inconclusive: 39.8 µM [inhibitor, partial curve, poor fit]
59 | O=C(Cc1cccc(Cl)c1)NC1CCCN(c2ccc3nnc(-c4ccccc4)n3n2)C1 (configuration not stated) | active: 35.5 µM
60 | O=C(Cc1cccc(Cl)c1)NCC1COc2ncncc2C(=O)N1CC1CC1 (configuration not stated) | inconclusive: 126 µM [inhibitor, partial curve, poor fit]
61 | CCc1nn(-c2ccc(OC)cc2)c(Oc2ccccc2F)c1CCC(=O)N(CC)CC | inconclusive: 50.1 µM [inhibitor, partial curve, poor fit]
62 | O=C(N1CCOCC1)N1CCCN(c2ccc3nnc(-c4ccccc4)n3n2)CC1 | inactive
63 | COc1ccc(CN2C(=O)[C@H](OC)[C@@H]2C2=CCN(C(=O)C3CCCC3)CC2)cc1 | inconclusive: 56.2 µM [inhibitor, partial curve, poor fit]
64 | CC(=O)N1CCC(C(=O)N2CCC(n3cc(-c4nc(-c5ccccc5)no4)nn3)CC2)CC1 | inactive
65 | O=C(N[C@@H]1CN(Cc2ccccc2)C[C@H]1CO)c1cn[nH]c1 | inactive
66 | CC(C)c1noc(-c2ccc(N(C)CC(O)c3ccccc3)nc2)n1 (configuration not stated) | inconclusive: 50.1 µM [inhibitor, partial curve, poor fit]
67 | COc1cccc(CN2CCOC3(CCN(Cc4ccc5[nH]ccc5c4)CC3)C2=O)c1 | inconclusive: 100 µM [inhibitor, partial curve, poor fit]
